This list was built around the results that the source calls inconclusive (neither active nor inactive); the mix of calls is not that of the screen. Potencies of inconclusive entries are doubtful fits and often do not repeat. The source made the active and inactive calls. The call rests on the fitted dose curve; in most records, active means well fitted inhibition curve with a large enough effect; inconclusive means small, poorly fitted or top-dose-only effect; inactive means no such curve, though single readings can be large or run the other way.
Target: Rap guanine nucleotide exchange factor 3 (Homo sapiens) (UniProt O95398)
Assay: Confirmatory qHTS for antagonist of cAMP-regulated guanine nucleotide exchange factor 3 (EPAC1) (AID 1645880); further: nearly all actives have a fitted effect of over 55% in size;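 on activity, negative = inhibition: plate controls were DMSO only for no effect and full effect of the ATA control for full effect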
Details: EPAC1 Rap1B-BODIPY-GDP exchange, fluorescence; activity, negative = inhibition: at 115 µM (top of the series)
Method in brief: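 Nucleotide exchange uses 100 nM EPAC1, 250 nM RAP1B-BODIPY-GDP and 50 uM GDP, with compounds in a concentration-titration series. After 5 min at room temperature, fluorescence (480 nm ex/540 nm em) is read every 5 min for 30 min. Data are normalized to control ATA and DMSO.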
Potency means the concentration at half of the fitted maximal effect; tags describe the fitted curve by direction and shape.

Chain of UniProt O95398 (O95398 whole entry, looked up): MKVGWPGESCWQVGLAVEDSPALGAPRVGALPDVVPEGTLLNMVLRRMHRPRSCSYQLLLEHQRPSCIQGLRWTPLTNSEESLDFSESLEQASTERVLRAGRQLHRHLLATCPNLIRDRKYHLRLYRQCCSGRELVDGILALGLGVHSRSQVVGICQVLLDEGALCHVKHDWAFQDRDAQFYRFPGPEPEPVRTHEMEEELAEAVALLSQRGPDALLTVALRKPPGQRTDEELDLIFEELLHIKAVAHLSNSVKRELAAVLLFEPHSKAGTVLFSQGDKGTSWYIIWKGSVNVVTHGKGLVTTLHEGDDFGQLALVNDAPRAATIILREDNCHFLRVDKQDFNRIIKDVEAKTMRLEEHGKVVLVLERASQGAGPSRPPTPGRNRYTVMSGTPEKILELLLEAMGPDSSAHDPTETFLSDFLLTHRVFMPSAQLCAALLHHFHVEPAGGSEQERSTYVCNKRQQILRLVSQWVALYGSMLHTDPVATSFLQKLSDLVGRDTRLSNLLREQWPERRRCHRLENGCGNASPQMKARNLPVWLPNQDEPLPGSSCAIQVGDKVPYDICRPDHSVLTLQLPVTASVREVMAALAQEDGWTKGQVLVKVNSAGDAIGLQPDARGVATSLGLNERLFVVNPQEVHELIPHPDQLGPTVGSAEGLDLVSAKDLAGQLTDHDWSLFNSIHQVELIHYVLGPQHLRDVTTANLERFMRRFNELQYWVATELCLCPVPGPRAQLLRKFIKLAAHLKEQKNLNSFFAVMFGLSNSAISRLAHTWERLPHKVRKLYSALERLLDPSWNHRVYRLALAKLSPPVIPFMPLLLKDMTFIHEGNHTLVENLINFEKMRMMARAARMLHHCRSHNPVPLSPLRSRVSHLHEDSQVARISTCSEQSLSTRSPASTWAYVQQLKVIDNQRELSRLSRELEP

activity, negative = inhibition, inactive:
O=C(Nc1cccs1)Nc1ccccc1Cl -29.1%

Potency, active:
Cc1nc2ccccc2c(=O)n1/N=C/c1ccccc1O 35.5 µM

Potency, inconclusive:
CCOC(=O)C1=CCN(S(=O)(=O)c2ccccc2C)C1c1ccc(Cl)c(Cl)c1 (stereo unspecified) 37.9 µM [inhibitor, partial curve, poor fit]
COc1ccc(CN(C)C(=O)c2ccc(OCC(=O)Nc3cccc(C(F)(F)F)c3)c(OC)c2)c(OC)c1 37.9 µM [inhibitor, partial curve]
CC(C)CCNC(=O)C(CC(C)C)N(Cc1ccc2c(c1)OCO2)C(=O)c1snc(C(N)=O)c1N (stereo unspecified) 75.7 µM [inhibitor, partial curve]
Cc1cccc(NC(=O)CSCC(=O)N(C)CCOc2ccc(Cl)cc2)c1 107 µM [inhibitor, partial curve, poor fit]
CCn1c(C(=O)N2CCc3ccccc3C2)cc2sccc21 84.9 µM [inhibitor, partial curve, poor fit]
CCOc1ccccc1Cn1c(=O)oc2ccc(C)cc21 15.1 µM [inhibitor, full curve, poor fit]
CCCCC1CC2=C(C(=O)OC(C)(C)O2)C(c2ccc(Cl)cc2)O1 (stereo unspecified) 15.1 µM [inhibitor, partial curve, poor fit]
Cc1cccc(C(=O)Nc2sc3c(c2C(=O)O)CCCC3)c1 75.7 µM [inhibitor, partial curve]

Target: Rap guanine nucleotide exchange factor 4 (Homo sapiens) (UniProt Q8WZA2)
Assay: Confirmatory qHTS for antagonist of cAMP-regulated guanine nucleotide exchange factor 4 (EPAC2) (AID 1645885); further: nearly all actives have a fitted effect of over 25% in size; on activity change, negative = inhibition: on the % scale 0 is the no-effect control and ±100 the full control effect
Details: EPAC2 Rap1B-BODIPY-GDP exchange fluorescence, biochemical; activity change, negative = inhibition: at 12.7 µM (top of the series) unless noted; series mostly up to 114 µM

Chain of UniProt Q8WZA2 (Q8WZA2 whole entry, looked up): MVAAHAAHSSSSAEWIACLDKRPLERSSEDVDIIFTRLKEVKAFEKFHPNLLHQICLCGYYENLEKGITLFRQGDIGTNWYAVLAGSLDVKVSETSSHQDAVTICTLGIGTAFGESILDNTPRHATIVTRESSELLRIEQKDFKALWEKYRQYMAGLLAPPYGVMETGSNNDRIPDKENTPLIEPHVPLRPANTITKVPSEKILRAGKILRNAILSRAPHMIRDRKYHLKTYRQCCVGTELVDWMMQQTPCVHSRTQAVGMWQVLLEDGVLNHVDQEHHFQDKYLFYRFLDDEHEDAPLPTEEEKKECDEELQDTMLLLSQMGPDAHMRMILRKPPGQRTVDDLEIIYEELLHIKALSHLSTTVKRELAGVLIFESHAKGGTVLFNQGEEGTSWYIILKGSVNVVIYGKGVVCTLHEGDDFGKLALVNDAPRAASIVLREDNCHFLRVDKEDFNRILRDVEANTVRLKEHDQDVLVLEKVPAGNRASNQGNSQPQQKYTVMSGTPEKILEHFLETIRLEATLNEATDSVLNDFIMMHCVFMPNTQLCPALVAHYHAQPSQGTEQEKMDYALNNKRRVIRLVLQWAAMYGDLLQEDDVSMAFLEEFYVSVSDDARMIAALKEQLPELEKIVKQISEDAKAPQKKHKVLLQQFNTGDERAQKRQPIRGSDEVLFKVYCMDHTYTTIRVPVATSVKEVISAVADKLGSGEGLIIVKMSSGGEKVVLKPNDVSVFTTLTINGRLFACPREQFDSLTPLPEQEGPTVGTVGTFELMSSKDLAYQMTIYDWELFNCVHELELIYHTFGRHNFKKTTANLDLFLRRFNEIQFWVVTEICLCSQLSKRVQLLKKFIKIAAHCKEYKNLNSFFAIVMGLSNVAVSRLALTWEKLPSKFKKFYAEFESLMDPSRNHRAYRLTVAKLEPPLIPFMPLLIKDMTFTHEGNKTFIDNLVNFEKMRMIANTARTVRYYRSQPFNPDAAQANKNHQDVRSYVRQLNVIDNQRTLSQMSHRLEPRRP

Potency, inconclusive:
Cc1cccc(OC(=O)Nc2ccc(C(=O)O)c(O)c2)c1 6.75 µM [inhibitor, partial curve, poor fit]
CC(=O)CCc1oc2ccccc2c1-c1ccccc1 5.36 µM [inhibitor, partial curve, poor fit]
COC(=O)/C(=C/Nc1ccc(O)cc1)[N+](=O)[O-] 21.3 µM [inhibitor, full curve, poor fit]
CCCCc1ccc(NC(=O)CN2C(=O)C3CCCCC3C2=O)cc1 (stereo unspecified) 33.8 µM [inhibitor, full curve]
Cc1cc(NC(=O)CS(=O)(=O)c2cn(Cc3cccc(Br)c3)c3ccccc23)no1 84.9 µM [inhibitor, partial curve, poor fit]
CC(C)C(NC(=O)c1ccccc1)C(=O)OCn1nnc2ccccc2c1=O (stereo unspecified) 8.49 µM [inhibitor, single point]
Cc1ccccc1NS(=O)(=O)c1ccc2c3c(cccc13)C(=O)N2C 26.9 µM [inhibitor, partial curve]
Cc1oc2ccc(O)c(CN3CCCCC3)c2c1C(=O)Nc1cccc(C(F)(F)F)c1 8.49 µM [inhibitor, single point]
COc1cccc(COC(=O)CSCC(=O)Nc2cccc(C)c2)c1OC 95.3 µM [inhibitor, partial curve, poor fit]
CCc1nc2c(OCc3ccc(C(=O)OC)cc3)cccn2c1N(C)C(=O)c1ccc(OC)cc1 2.69 µM [inhibitor, partial curve]
CC(C)CCNC(=O)c1cnn2c(C(F)(F)F)cc(-c3ccco3)nc12 37.9 µM [inhibitor, single point]

Potency, active:
O=C(O)/C=C\C(=O)Nc1ccccc1C#Cc1ccc(Br)cc1 1.35 µM
O=C(COc1ccc2ccccc2c1)Nc1cccc(C(=O)Nc2ccccc2C(=O)O)c1 47.8 µM

outcome, inactive:
CC[C@@H]1CC=C[C@H]2[C@H]1C(=O)N(Cc1ccccc1)[C@H]2c1ccc(OC)c(Cl)c1

Activity change, negative = inhibition, inactive:
Cc1ccc(-c2csc(/C(C#N)=C(\O)CCl)n2)cc1 -8.08%
N#Cc1c(NC(=O)C2CC=CCC2C(=O)O)sc2c1CCCCCC2 (stereo unspecified) -0.0478%
Cc1ccc(/C=C/C(=O)Nc2nnc(SCc3ccc(C#N)cc3)s2)o1 -15.3% [at 114 µM]
O=C(Nc1cccc(NC(=O)c2cccs2)c1)c1ccc(Br)o1 -21.1% [at 114 µM]
Cc1cccc(N2C(=O)C(O)=C(C(=O)c3cccs3)C2c2cccc(Oc3ccccc3)c2)n1 (stereo unspecified) 23.5% [at 114 µM]
COc1ccc(C2NC(=O)N(C)C3=C2C(=O)N(c2cccc(Cl)c2)C3)cc1 (stereo unspecified) -6.1%
CCC1=NN2C(=N)/C(=C/c3ccc(OS(=O)(=O)c4ccccc4)cc3)C(=O)N=C2S1 -6.12% [at 114 µM]

From PubChem BioAssay (NCATS)
